{
  "source": "patent US20260232796A1",
  "about": "“COMBINATION THERAPIES WITH AN ANTI-FACTOR XI/FACTOR XIA ANTIBODY” (Anthos Therapeutics, Inc., priority 2022, published 2026)",
  "molecules": {"B1": {"name": "Antibody 1: high-affinity, anti-human Factor XI monoclonal antibody; heavy chain SEQ ID NO: 31, light chain SEQ ID NO: 41 (antibody)", "heavy": "QVQLLESGGGLVQPGGSLRLSCAASGFTFSTAAMSWVRQAPGKGLEWVSGISGSGSSTYYADSVKGRFTISRDNSKNTLYLQMNSLRAEDTAVYYCARELSYLYSGYYFDYWGQGTLVTVSSASTKGPSVFPLAPSSKSTSGGTAALGCLVKDYFPEPVTVSWNSGALTSGVHTFPAVLQSSGLYSLSSVVTVPSSSLGTQTYICNVNHKPSNTKVDKRV[skipping human IgG1 Fc with D265A P329A (EU numbers)]", "light": "QSVLTQPPSASGTPGQRVTISCSGSSSNIGSNDVSWYQQLPGTAPKLLIYKNYNRPSGVPDRFSGSKSGTSASLAISGLQSEDEADYYCSAWDQRQFDVVFGGGTKLTVLGQPKAAPSVTLFPPSSEELQANKATLVCLISDFYPGAVTVAWKADSSPVKAGVETTTPSKQSNNKYAASSYLSLTPEQWKSHRSYSCQVTHEGSTVEKTVAPTECS"}},
  "key": {"platelet aggregation [1]": {"system": "platelet aggregation", "assay": "Impedance platelet aggregometry in whole blood spiked with ticagrelor +/- Antibody 1", "assay_type": "cell-based, human", "conditions": "Antibody 1 at 125, 250, and 500 ng/mL added to ticagrelor 3 μM; ADP or TRAP-6 induction", "method": "In the second study, whole blood was spiked with vehicle, ticagrelor (3 μM), or ticagrelor (3 μM)+Antibody 1 (125, 250, and 500 nM). Platelet aggregation was measured with the same methodology following induction by ADP (6.4 μM) or thrombin receptor activating peptide-6 (TRAP-6, 32 μM)."}, "platelet aggregation [2]": {"system": "platelet aggregation", "assay": "Whole blood platelet aggregation, multiplate impedance aggregometer (Example 1)", "assay_type": "cell-based, human", "conditions": "Antibody 1 250, 500 or 1000 nM, vs vehicle", "method": "(§1) Whole blood was obtained in EDTA and citrate tubes (6 healthy donors). Specimens were spiked with vehicle, Antibody 1 (250, 500, or 1000 nM), or abciximab (50 nM). Platelet aggregation was recorded following induction using collagen (1 μg/mL) or TRAP-6 (8 μM) using a multiplate impedance aggregometer. The area under the curve (AUC) for platelet aggregation was determined in arbitrary aggregation*time (AU*min). Thrombin generation was also measured at the above Antibody 1 and abciximab concentrations in platelet-rich plasma using Thrombinoscope CAT (Calibrated Automated Thrombogram; Stago CH S.A. and tissue factor reagent (1 μM); fluorescence was measured by an automated plate reader fluorometer."}, "[3]": {"system": "clot formation in human blood", "assay": "Rotational thromboelastometry (ROTEM) NATEM test in whole blood in vitro", "assay_type": "cell-based", "conditions": "for prolongation of CT (clotting time) vs baseline: 10 minutes at 37° C.", "method": "Blood specimens were obtained in citrate tubes from 6 healthy human donors. Specimens were incubated with 15 and 30 μg/mL of Antibody 1 or vehicle for 10 minutes at 37° C. Specimens were subsequently spiked with rFVIIa at 0.5 and 1 μg/mL or vehicle control. Clot formation was monitored using ROTEM® delta analyzers and the non-activated thromboelastometry (NATEM) test using a recalcification reagent. CT (clotting time, in seconds), CFT (clot formation time, in seconds), alpha angle, etc. were measured and were compared to reference ranges provided by the manufacturer (Pentapharm GmbH, Munich, Germany)."}, "platelet aggregation [4]": {"system": "platelet aggregation", "assay": "Impedance platelet aggregometry in whole blood spiked with aspirin +/- Antibody 1", "assay_type": "cell-based, human", "conditions": "Antibody 1 at 125, 250, and 500 ng/mL added to aspirin 1 mg/mL; collagen or arachidonic acid induction", "method": "Two studies were conducted concurrently. Blood specimens were obtained in EDTA and citrate tubes (6 healthy donors for each study). In the first study, whole blood was spiked with vehicle, aspirin (1 mg/mL), or aspirin (1 mg/mL)+Antibody 1 (125, 250, and 500 nM). Platelet aggregation was measured by impedance platelet aggregometry following induction with collagen (3.2 μg/mL) or arachidonic acid (0.5 mM) (Multiplate® analyzer, COLtest and ASPItest reagents; Roche Diagnostics International Ltd, Rotkreuz, Switzerland)."}, "thrombin generation": {"system": "thrombin generation", "assay": "Thrombin generation in platelet-rich plasma, Calibrated Automated Thrombogram", "assay_type": "biochemical, human", "conditions": "tissue factor reagent, Antibody 1 250, 500 or 1000 nM", "method": "as §1"}},
  "data": [
    {"molecule": "B1", "values": [
      {"measurement": "effect on platelet inhibition achieved with ticagrelor alone", "setting": "platelet aggregation [1]", "value": "did not alter"},
      {"measurement": "platelet aggregation induced by TRAP-6", "setting": "platelet aggregation [2]; TRAP-6 8 μM", "value": "no inhibitory or stimulatory effects"},
      {"measurement": "platelet aggregation induced by collagen", "setting": "platelet aggregation [2]; collagen 1 μg/mL, abciximab 50 nM", "value": "no inhibitory or stimulatory effects"},
      {"measurement": "decrease of alpha angle vs baseline", "setting": "[3]; Antibody 1 15 μg/mL", "value": 10, "unit": "%"},
      {"measurement": "prolongation of CFT (clot formation time) vs baseline", "setting": "[3]; Antibody 1 15 μg/mL", "value": 37, "unit": "%"},
      {"measurement": "prolongation of CT (clotting time) vs baseline", "setting": "[3]; Antibody 1 15 μg/mL", "value": 61, "unit": "%"},
      {"measurement": "decrease of alpha angle vs baseline", "setting": "[3]; Antibody 1 30 μg/mL", "value": 14, "unit": "%"},
      {"measurement": "prolongation of CFT (clot formation time) vs baseline", "setting": "[3]; Antibody 1 30 μg/mL", "value": 32, "unit": "%"},
      {"measurement": "prolongation of CT (clotting time) vs baseline", "setting": "[3]; Antibody 1 30 μg/mL", "value": 64, "unit": "%"},
      {"measurement": "effect on level of platelet aggregation inhibition achieved with aspirin alone", "setting": "platelet aggregation [4]", "value": "did not attenuate or increase"},
      {"measurement": "lag time of thrombin generation", "setting": "thrombin generation", "value": "significant delays"},
      {"measurement": "time to peak concentration of thrombin generation", "setting": "thrombin generation", "value": "significant delays"}
    ]}
  ]
}
